In all, about 33,000 sequences were measured (“E-score (-0.5 to 0.5)”: median about -0.012, highest 2% from about 0.27 on). The list shows a part of the results.
Biological target: T1, Vhr1 (UniProt P40522)
T1 sequence: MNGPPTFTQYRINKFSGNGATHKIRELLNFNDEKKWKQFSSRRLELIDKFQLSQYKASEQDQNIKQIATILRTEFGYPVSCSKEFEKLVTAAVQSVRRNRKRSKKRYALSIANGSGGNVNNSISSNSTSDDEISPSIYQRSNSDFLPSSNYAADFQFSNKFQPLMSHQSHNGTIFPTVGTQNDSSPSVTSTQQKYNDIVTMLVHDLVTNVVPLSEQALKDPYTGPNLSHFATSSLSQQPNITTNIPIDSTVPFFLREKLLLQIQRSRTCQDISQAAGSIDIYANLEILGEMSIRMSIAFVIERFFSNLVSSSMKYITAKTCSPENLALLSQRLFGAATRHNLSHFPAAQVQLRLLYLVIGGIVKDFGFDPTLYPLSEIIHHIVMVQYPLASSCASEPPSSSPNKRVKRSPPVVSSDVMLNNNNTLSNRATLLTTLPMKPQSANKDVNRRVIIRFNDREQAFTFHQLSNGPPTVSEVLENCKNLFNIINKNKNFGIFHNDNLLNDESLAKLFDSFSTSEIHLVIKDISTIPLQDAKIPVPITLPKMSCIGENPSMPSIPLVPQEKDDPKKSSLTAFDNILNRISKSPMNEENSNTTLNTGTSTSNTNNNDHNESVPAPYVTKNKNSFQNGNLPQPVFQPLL
Test: PBM E-score (8-mer binding enrichment) (E-score (-0.5 to 0.5)); higher = stronger / more preferred TF binding; most listed sequences are background and not binding sites
Details: protein concentration: 200 nM; construct: GST-full length
How it was run: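 For each ungapped eight-base word taken together with its reverse complement, the Universal PBM Analysis Suite assigned an E-score. Binding data came from GST-tagged yeast transcription factors, applied at about 100-200 nM, on universal all-10-mer Agilent arrays made double-stranded by primer extension. Fluorescent anti-GST marked bound protein, and scans were normalised with masliner.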

Sequence | PBM E-score
CGCCCTAC | -0.116
GCGTGTAA | -0.0131
ACGGTCCG | -0.0765
GGGCACAA | 0.0396
GTCGAAGA | -0.0328
CGTGCAAA | -0.162
GGCAAACA | 0.0023
CCAGATCC | -0.0801
ATATGAGA | 0.0143
CCCATTAG | -0.245
ACTAATTG | 0.179
ACGTCGAG | -0.0236
GAACGTGC | -0.154
GAGAGTGC | -0.301
ACCGTGTA | 0.15
CAATCCAC | 0.117
TAAGCTGA | 0.00653
AACCGGTA | -0.148
TAACCTAA | -0.187
CTGAAGAA | -0.18
CTCACCAC | 0.0405
GAATTGGC | -0.176
ATAAACAT | -0.00214
GTATGCAA | 0.141
CTCTAGAA | -0.101

Sequence | PBM E-score
GGGAGAGA | -0.214
AGCTTTAG | -0.192
CCTTGGGC | -0.158
TCATATAA | -0.0246
TAAATTCA | -0.0546
CCACCAGA | 0.201
GTACATCA | 0.266
ATCGAATA | 0.00408
AGCTGCCT | -0.219
ACTAATGC | 0.143
AAGAACTG | -0.0594
ACGCCGTC | -0.0654
TGTGGGAA | -0.109
CCGACCTC | -0.0746
CTCAGACA | -0.00101
AATCATTG | 0.283
AGCCTGAT | -0.166
GGCGTCGA | 0.133
ATACGCAC | 0.0952
ATCGTCCA | -0.0611
GAGAAGGA | -0.134
CACTATAG | 0.0647
GCTACATA | 0.0513
CCACGACC | 0.0103
AGCTACTC | 0.00066

Sequence | PBM E-score
AAAATGGG | -0.244
CACATTAC | 0.11
AGCTCGGC | -0.0942
AGCCACTA | 0.014
CGGTCATC | 0.124
GGATTTAC | -0.239
CCCCACGG | -0.0732
GAATCTCA | -0.0491
CTCAGATC | 0.11
GAAGGTAA | 0.00895
ACGTGCGG | -0.0456
CTCTTCTA | -0.137
ATATCCTA | 0.109
AGGCCACT | -0.0952
TCGCAGAA | -0.0951
AATAGTCT | -0.0519
ATGTCGGC | -0.0481
TACCAAGA | 0.0906
CCCCAGCA | -0.0375
GCAGTTGA | 0.175
AACTGCCC | -0.129
ACAGTTTC | 0.0797
CCAAAACG | 0.162
TACACCAA | 0.0252
CCACAGGA | -0.0405

Sequence | PBM E-score
AAGAGCCC | -0.0902
AGTCCAAA | -0.0544
ACTTCAAT | -0.101
ATTGTTGC | 0.0438
CTGGCGTC | -0.034
CACCCGAC | 0.0689
ATTCCCTA | 0.0361
AAGCGCCA | -0.138
CCTTTTCA | -0.153
ACGGAGTA | 0.0079
AGACATTG | -0.0856
TACTGAAA | 0.0591
GGCTAAGA | -0.0931
AGCGCCGG | -0.147
AACCAGTT | 0.245
CGTACACC | -0.00295
GCCCCGAC | 0.108
GGTTATGA | 0.0904
AAGCTCCC | -0.125
CAGGCTCA | 0.229
GGTGATCA | 0.166
TATTATAA | -0.0377
AGATGTCA | 0.0715
ACGTACAC | 0.174
ACGCGCGT | -0.0127

Sequence | PBM E-score
AAAGGGCT | -0.223
AGCCTCGG | -0.00338
ATGTAGTG | 0.114
GTTATAAA | -0.0862
CTCACAGA | 0.0226
AGTTGCAG | -0.0695
GTTAGTAA | -0.0135
AAGACTTG | -0.127
AGTGGTGA | 0.00626
AGCCATAG | 0.0188
ACAAAACA | 0.0375
CCGGACGC | 0.105
CCTTTACC | -0.185
CGATTGCG | -0.0419
ACTTGATA | 0.153
CTGCGCCC | -0.161
GAGCCATC | 0.228
CCACGAAA | -0.153
CCCTCCCG | 0.00845
CGACTCCG | 0.391
TGGGCAAA | -0.044
AAATAATC | 0.0264
ACGCGTTC | -0.0968
AAAGCGCA | -0.125
CTAAAATA | -0.0284

Sequence | PBM E-score
CTTCCCCC | -0.189
ATGCATAC | 0.079
CATGCCAA | -0.0216
ATGAAAGA | -0.0635
AACTCCCG | -0.112
TTACTCAA | 0.0752
ACTCGGCC | 0.0882
GACCCGTA | 0.088
CTGAGTGC | 0.0204
CTACTAAA | -0.0489
CTTGGTTA | 0.126
GCGGGCGA | 0.255
AAGTTTTG | -0.0397
CGAAACGA | -0.0761
CAGTCGGA | 0.0502
AGATCTAC | -0.0561
ATAGATGC | -0.0668
GTAAAGCA | -0.144
ATAAATAC | 0.0462
CCGGGCCA | 0.035
AATGCTAG | -0.0453
ATGTGGCA | 0.0234
AGTTCGCC | -0.0347
CGGACGGC | -0.108
AAGCGATA | -0.00935

Sequence | PBM E-score
AAGTAATG | 0.0713
GTCAATAA | -0.0972
TATGATGA | 0.286
ACCTTATG | 0.0528
CGCTACAA | -0.156
CGGAGATC | -0.0653
CAACTCTA | -0.152
GAATGTAC | -0.00977
CCCCATTA | -0.0673
ATTTACAC | 0.0629
CCGGCCAG | -0.162
AGATCTTC | -0.07
GATAGAAC | -0.0917
ATTGCTGA | -0.0567
ATCCGGAC | -0.192
CTGTAATA | 0.175
ATAAAAAT | -0.0282
CCCGGGGA | -0.0716
CTCGAGCC | 0.069
AAGAACGC | -0.195
ATTGGTTG | 0.159
ATACTAGC | 0.183
GATGACTA | 0.447
CAATGTAC | -0.134
GGATCAAC | -0.0769

Sequence | PBM E-score
GATTTCCC | -0.0496
CGGCTAAC | -0.0152
ATTAGGAA | -0.143
AACGTTAA | -0.16
AGCGGACT | -0.0924
CCGCCTAA | -0.119
GCTGCCGA | -0.0919
GTACTCTA | -0.0423
ACAACGCT | 0.0591
AGTAGGTA | -0.0623
CTTTCGCC | -0.196
GAACACTC | 0.088
GATCGAAA | -0.0319
GAAGATTC | 0.0133
AAGAGTTC | -0.179
GAAAGTTC | -0.349
ATAAGGTA | -0.00465
TCCTTCGA | -0.111
AGCTTGGA | -0.231
ACAGGTCC | -0.195
AATATCAA | 0.0811
CGGTAGAC | -0.00049
AATTGCGA | 0.0284
AACGTCCT | -0.14
AGACAAGA | 0.0549

Sequence | PBM E-score
TAACACAA | 0.0935
AGGATCCA | 0.0343
AAGCTCAT | -0.0433
CCTCACCC | 0.0394
GCTCTCAC | -0.291
GCAAATCA | -0.0172
ATATCGTC | -0.0603
AACCTCTT | 0.0249
AACGCTAC | -0.205
CCGAGAAC | -0.0935
ACGCTGCA | -0.103
AGGTCCGG | 0.0135
ACAGAACG | -0.0406
AAGTCCGC | 0.00158
CTCCGCTA | 0.00749
GCTACCGA | 0.0861
CGCCTGCC | 0.00566
ACCTTGTA | -0.035
CACGAAAA | -0.0528

— the supplement of paper PMC3334620
